Laboratory results taken from the supplement of paper PMC8728848.
Some of the results follow.

Legend:
Assay in all cases: glycan array binding signal (z-score within array); higher = stronger binding
Conditions in all cases: glycan notation: IUPAC condensed, linker removed
[1] = target: Neu5Ac(a2-6)Gal(b1-4)GlcNAc(b1-2)Man(a1-3)[Man(a1-6)]Man(b1-4)GlcNAc(b1-4)GlcNAc
Outline: (§1)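 The Consortium for Functional Glycomics database supplied 3228 glycan arrays, of which those lacking an available protein sequence were dropped. The binding signal, a within-array Z-score, was averaged across arrays of the same protein sequence and across linkers. Negative scores can be read as non-binding.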

[2] = target: Neu5Ac(a2-6)Gal(b1-4)GlcNAc(b1-2)Man(a1-3)[Neu5Ac(a2-3)Gal(b1-4)GlcNAc(b1-2)Man(a1-6)]Man(b1-4)GlcNAc(b1-4)GlcNAc
Outline: as §1

[3] = target: Neu5Ac(a2-6)Gal(b1-4)GlcNAc(b1-2)Man(a1-3)[Neu5Ac(a2-6)Gal(b1-4)GlcNAc(b1-2)Man(a1-6)]Man(b1-4)GlcNAc(b1-4)GlcNAc
Outline: as §1

[4] = target: Neu5Ac(a2-6)Gal(b1-4)GlcNAc(b1-2)Man(a1-3)[Neu5Ac(a2-6)Gal(b1-4)GlcNAc(b1-2)Man(a1-6)]Man(b1-4)GlcNAc(b1-4)[Fuc(a1-6)]GlcNAc
Outline: as §1

[5] = target: Neu5Ac(a2-6)Gal(b1-4)GlcNAc(b1-2)Man(a1-6)Man(b1-4)GlcNAc(b1-4)GlcNAc
Outline: as §1

[6] = target: Neu5Ac(a2-6)Gal(b1-4)GlcNAc(b1-2)Man(a1-6)[Gal(b1-4)GlcNAc(b1-2)Man(a1-3)]Man(b1-4)GlcNAc(b1-4)GlcNAc
Outline: as §1

[7] = target: Neu5Ac(a2-6)Gal(b1-4)GlcNAc(b1-2)Man(a1-6)[GlcNAc(b1-2)Man(a1-3)]Man(b1-4)GlcNAc(b1-4)GlcNAc
Outline: as §1

[8] = target: Neu5Ac(a2-6)Gal(b1-4)GlcNAc(b1-2)Man(a1-6)[Man(a1-3)]Man(b1-4)GlcNAc(b1-4)GlcNAc
Outline: as §1

[9] = target: Neu5Ac(a2-6)Gal(b1-4)GlcNAc(b1-2)[Neu5Ac(a2-6)Gal(b1-4)GlcNAc(b1-4)]Man(a1-3)[GlcNAc(b1-4)][Neu5Ac(a2-6)Gal(b1-4)GlcNAc(b1-2)[Neu5Ac(a2-6)Gal(b1-4)GlcNAc(b1-6)]Man(a1-6)]Man(b1-4)GlcNAc(b1-4)GlcNAc
Outline: as §1

[10] = target: Neu5Ac(a2-6)Gal(b1-4)GlcNAc(b1-2)[Neu5Ac(a2-6)Gal(b1-4)GlcNAc(b1-4)]Man(a1-3)[GlcNAc(b1-4)][Neu5Ac(a2-6)Gal(b1-4)GlcNAc(b1-4)Man(a1-6)]Man(b1-4)GlcNAc(b1-4)GlcNAc
Outline: as §1

[11] = target: Neu5Ac(a2-6)Gal(b1-4)GlcNAc(b1-2)[Neu5Ac(a2-6)Gal(b1-4)GlcNAc(b1-6)]Man(a1-6)[Neu5Ac(a2-6)Gal(b1-4)GlcNAc(b1-2)Man(a1-3)][GlcNAc(b1-4)]Man(b1-4)GlcNAc(b1-4)GlcNAc
Outline: as §1

[12] = target: Neu5Ac(a2-6)Gal(b1-4)GlcNAc(b1-3)Gal(b1-3)GlcNAc
Outline: as §1

[13] = target: Neu5Ac(a2-6)Gal(b1-4)GlcNAc(b1-3)Gal(b1-4)GlcNAc
Outline: as §1

[14] = target: Neu5Ac(a2-6)Gal(b1-4)GlcNAc(b1-3)Gal(b1-4)GlcNAc(b1-2)Man(a1-3)[Neu5Ac(a2-6)Gal(b1-4)GlcNAc(b1-3)Gal(b1-4)GlcNAc(b1-2)Man(a1-6)]GalNAc
Outline: as §1

[15] = target: Neu5Ac(a2-6)Gal(b1-4)GlcNAc(b1-3)Gal(b1-4)GlcNAc(b1-3)Gal(b1-4)GlcNAc
Outline: as §1

[16] = target: Neu5Ac(a2-6)Gal(b1-4)GlcNAc(b1-3)Gal(b1-4)GlcNAc(b1-3)Gal(b1-4)GlcNAc(b1-2)Man(a1-3)[Neu5Ac(a2-6)Gal(b1-4)GlcNAc(b1-3)Gal(b1-4)GlcNAc(b1-3)Gal(b1-4)GlcNAc(b1-2)Man(a1-6)]GalNAc
Outline: as §1

[17] = target: Neu5Ac(a2-6)Gal(b1-4)GlcNAc(b1-3)Gal(b1-4)GlcNAc(b1-3)GalNAc
Outline: as §1

[18] = target: Neu5Ac(a2-6)Gal(b1-4)GlcNAc(b1-3)Gal(b1-4)GlcNAc(b1-3)[Neu5Ac(a2-6)Gal(b1-4)GlcNAc(b1-3)Gal(b1-4)GlcNAc(b1-6)]GalNAc
Outline: as §1

[19] = target: Neu5Ac(a2-6)Gal(b1-4)GlcNAc(b1-3)Gal(b1-4)GlcNAc(b1-6)[Gal(b1-3)]GalNAc
Outline: as §1

[20] = target: Neu5Ac(a2-6)Gal(b1-4)GlcNAc(b1-3)Gal(b1-4)[Fuc(a1-3)]GlcNAc(b1-3)Gal(b1-4)[Fuc(a1-3)]GlcNAc
Outline: as §1

[21] = target: Neu5Ac(a2-6)Gal(b1-4)GlcNAc(b1-3)GalNAc
Outline: as §1

[22] = target: Neu5Ac(a2-6)Gal(b1-4)GlcNAc(b1-3)[Neu5Ac(a2-6)Gal(b1-4)GlcNAc(b1-6)]GalNAc
Outline: as §1

[23] = target: Neu5Ac(a2-6)Gal(b1-4)GlcNAc(b1-6)GalNAc
Outline: as §1

[24] = target: Neu5Ac(a2-6)Gal(b1-4)GlcNAc(b1-6)[Gal(b1-3)GlcNAc(b1-3)]Gal(b1-4)Glc
Outline: as §1

[25] = target: Neu5Ac(a2-6)Gal(b1-4)GlcNAc(b1-6)[Gal(b1-3)]GalNAc
Outline: as §1

[26] = target: Neu5Ac(a2-6)Gal(b1-4)GlcNAc6S
Outline: as §1

[27] = target: Neu5Ac(a2-6)GalNAc
Outline: as §1

[28] = target: Neu5Ac(a2-6)GalNAc(b1-4)GlcNAc
Outline: as §1

[29] = target: Neu5Ac(a2-6)GalNAc(b1-4)GlcNAc6S
Outline: as §1

[30] = target: Neu5Ac(a2-6)GlcNAc(b1-4)GlcNAc
Outline: as §1

[31] = target: Neu5Ac(a2-6)GlcNAc(b1-4)GlcNAc(b1-4)GlcNAc
Outline: as §1

[32] = target: Neu5Ac(a2-8)Neu5Ac
Outline: as §1

[33] = target: Neu5Ac(a2-8)Neu5Ac(a2-3)Gal(b1-3)GalNAc(b1-4)[Neu5Ac(a2-3)]Gal(b1-4)Glc
Outline: as §1

[34] = target: Neu5Ac(a2-8)Neu5Ac(a2-3)Gal(b1-3)GalNAc(b1-4)[Neu5Ac(a2-8)Neu5Ac(a2-3)]Gal(b1-4)Glc
Outline: as §1

[35] = target: Neu5Ac(a2-8)Neu5Ac(a2-3)Gal(b1-4)Glc
Outline: as §1

[36] = target: Neu5Ac(a2-8)Neu5Ac(a2-3)Gal(b1-4)GlcNAc
Outline: as §1

[37] = target: Neu5Ac(a2-8)Neu5Ac(a2-3)[Gal(b1-3)GalNAc(b1-4)]Gal(b1-4)Glc
Outline: as §1

[38] = target: Neu5Ac(a2-8)Neu5Ac(a2-3)[GalNAc(b1-4)]Gal(b1-4)Glc
Outline: as §1

[39] = target: Neu5Ac(a2-8)Neu5Ac(a2-8)Neu5Ac
Outline: as §1

[40] = target: Neu5Ac(a2-8)Neu5Ac(a2-8)Neu5Ac(a2-3)Gal(b1-4)Glc
Outline: as §1

[41] = target: Neu5Ac(a2-8)Neu5Ac(a2-8)Neu5Ac(a2-3)[Gal(b1-3)GalNAc(b1-4)]Gal(b1-4)Glc
Outline: as §1

[42] = target: Neu5Ac(a2-8)Neu5Ac(a2-8)Neu5Ac(a2-3)[GalNAc(b1-4)]Gal(b1-4)Glc
Outline: as §1

[43] = target: Neu5Ac(a2-8)Neu5Ac(a2-8)Neu5Ac(a2-8)Neu5Ac(a2-3)[GalNAc(b1-4)]Gal(b1-4)Glc
Outline: as §1

[44] = target: Neu5Ac(a2-8)Neu5Gc(a2-3)Gal(b1-4)GlcNAc
Outline: as §1

[45] = target: Neu5Ac(b2-6)Gal(b1-4)GlcNAc
Outline: as §1

[46] = target: Neu5Ac(b2-6)GalNAc
Outline: as §1

[47] = target: Neu5Ac9Ac(a2-3)Gal(b1-3)GlcNAc
Outline: as §1

[48] = target: Neu5Ac9Ac(a2-3)Gal(b1-4)GlcNAc
Outline: as §1

[49] = target: Neu5Ac9Ac(a2-6)Gal(b1-4)GlcNAc
Outline: as §1

[50] = target: Neu5Gc(a2-3)Gal(b1-3)GlcNAc
Outline: as §1

[51] = target: Neu5Gc(a2-3)Gal(b1-3)[Fuc(a1-4)]GlcNAc
Outline: as §1

[52] = target: Neu5Gc(a2-3)Gal(b1-4)Glc
Outline: as §1

[53] = target: Neu5Gc(a2-3)Gal(b1-4)GlcNAc
Outline: as §1

[54] = target: Neu5Gc(a2-3)Gal(b1-4)GlcNAc(b1-3)Gal(b1-4)GlcNAc(b1-2)Man(a1-3)[Neu5Gc(a2-3)Gal(b1-4)GlcNAc(b1-3)Gal(b1-4)GlcNAc(b1-2)Man(a1-6)]Man(b1-4)GlcNAc(b1-4)GlcNAc
Outline: as §1

[55] = target: Neu5Gc(a2-3)Gal(b1-4)[Fuc(a1-3)]GlcNAc
Outline: as §1

[56] = target: Neu5Gc(a2-6)Gal(b1-4)GlcNAc
Outline: as §1

[57] = target: Neu5Gc(a2-6)GalNAc
Outline: as §1

[58] = target: Neu5Gc(a2-8)Neu5Ac(a2-3)Gal(b1-4)GlcNAc
Outline: as §1

[59] = target: Neu5Gc(a2-8)Neu5Gc(a2-3)Gal(b1-4)GlcNAc
Outline: as §1

[60] = target: Neu5Gc(a2-8)Neu5Gc(a2-3)Gal(b1-4)GlcNAc(b1-3)Gal(b1-4)GlcNAc
Outline: as §1

[61] = target: Neu5Gc(a2-8)Neu5Gc(a2-6)Gal(b1-4)GlcNAc
Outline: as §1

[62] = target: Neu5Gc(b2-6)Gal(b1-4)GlcNAc
Outline: as §1

B1: PfulAvr4 2 (Pseudocercospora fuligena) (protein)
chain: HHHHHHDYKDDDDKAKPIKPFACPPKDFTTTKCQGPVDCLYANPLSCLGYIQCVCDDDACSTATPYAKSCPTGLAWVEKLKRCDGIKKSACPKKMYEGS
glycan array binding signal (z-score) [1]: -0.122
glycan array binding signal (z-score) [2]: -0.075
glycan array binding signal (z-score) [3]: -0.108
glycan array binding signal (z-score) [4]: -0.193
glycan array binding signal (z-score) [5]: -0.214
glycan array binding signal (z-score) [6]: -0.34
glycan array binding signal (z-score) [7]: -0.14
glycan array binding signal (z-score) [8]: -0.119
glycan array binding signal (z-score) [9]: -0.331
glycan array binding signal (z-score) [10]: -0.269
glycan array binding signal (z-score) [11]: -0.267
glycan array binding signal (z-score) [12]: -0.344
glycan array binding signal (z-score) [13]: -0.179
glycan array binding signal (z-score) [14]: -0.204
glycan array binding signal (z-score) [15]: -0.142
glycan array binding signal (z-score) [16]: 0.29
glycan array binding signal (z-score) [17]: -0.369
glycan array binding signal (z-score) [18]: 0.595
glycan array binding signal (z-score) [19]: -0.385
glycan array binding signal (z-score) [20]: -0.159
glycan array binding signal (z-score) [21]: 0.204
glycan array binding signal (z-score) [22]: -0.185
glycan array binding signal (z-score) [23]: -0.148
glycan array binding signal (z-score) [24]: -0.283
glycan array binding signal (z-score) [25]: -0.189
glycan array binding signal (z-score) [26]: -0.248
glycan array binding signal (z-score) [27]: 0.086
glycan array binding signal (z-score) [28]: -0.385
glycan array binding signal (z-score) [29]: -0.323
glycan array binding signal (z-score) [30]: -0.412
glycan array binding signal (z-score) [31]: 3.75
glycan array binding signal (z-score) [32]: -0.297
glycan array binding signal (z-score) [33]: -0.14
glycan array binding signal (z-score) [34]: 1.97
glycan array binding signal (z-score) [35]: -0.324
glycan array binding signal (z-score) [36]: -0.416
glycan array binding signal (z-score) [37]: -0.259
glycan array binding signal (z-score) [38]: -0.277
glycan array binding signal (z-score) [39]: -0.178
glycan array binding signal (z-score) [40]: -0.243
glycan array binding signal (z-score) [41]: 0.31
glycan array binding signal (z-score) [42]: -0.402
glycan array binding signal (z-score) [43]: -0.421
glycan array binding signal (z-score) [44]: -0.336
glycan array binding signal (z-score) [45]: -0.388
glycan array binding signal (z-score) [46]: -0.251
glycan array binding signal (z-score) [47]: -0.251
glycan array binding signal (z-score) [48]: -0.216
glycan array binding signal (z-score) [49]: -0.113
glycan array binding signal (z-score) [50]: -0.237
glycan array binding signal (z-score) [51]: -0.204
glycan array binding signal (z-score) [52]: 0.244
glycan array binding signal (z-score) [53]: -0.214
glycan array binding signal (z-score) [54]: -0.009
glycan array binding signal (z-score) [55]: -0.42
glycan array binding signal (z-score) [56]: -0.322
glycan array binding signal (z-score) [57]: -0.133
glycan array binding signal (z-score) [58]: -0.356
glycan array binding signal (z-score) [59]: -0.296
glycan array binding signal (z-score) [60]: -0.236
glycan array binding signal (z-score) [61]: -0.299
glycan array binding signal (z-score) [62]: -0.18
